± gives the standard deviation of the averaged measurements. The full ranking holds about 33,000 sequences; the median of “E-score (dimensionless, -0.5 to 0.5)” is about -0.049, and the highest 2% start at about 0.37. This is one part of the list.
Test system: T1, PmTbr T-box DNA-binding domain (GST fusion)
T1 sequence: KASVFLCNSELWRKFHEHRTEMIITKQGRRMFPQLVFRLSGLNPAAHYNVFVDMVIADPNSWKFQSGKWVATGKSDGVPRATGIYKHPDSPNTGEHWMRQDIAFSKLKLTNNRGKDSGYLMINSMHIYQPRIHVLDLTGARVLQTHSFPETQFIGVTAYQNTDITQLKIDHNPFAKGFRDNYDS
Assay: PBM E-score of 8-mer (E-score (dimensionless, -0.5 to 0.5)); Tbr is Tbrain of the sea star Patiria miniata (Pm) or the sea urchin Strongylocentrotus purpuratus (Sp); higher = stronger binding preference; most listed sequences are background and not binding sites
Details: the construct has about 5 more residues each side
How it was run: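 Using the Universal PBM Analysis Suite, every ungapped 8-mer received an enrichment E-score averaged over duplicate arrays. Probe intensities came from double-stranded Universal Agilent oligonucleotide arrays incubated with 200 nM GST-fused Tbr T-box DNA-binding domain in PBS (pH 7.5). That protein was expressed in BL21 E. coli at 20 °C and purified by glutathione affinity chromatography.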

Row | Sequence | PBM E-score of 8-mer
1 | GGTACTTA | -0.233 ± 0.098
2 | ATAGAGTC | -0.207 ± 0.029
3 | ACCTTTGC | 0.157 ± 0.032
4 | CCAGTGGG | -0.248 ± 0.01
5 | CCGTCCGA | -0.0765 ± 0.0039
6 | ACACGTCC | 0.274 ± 0.034
7 | CCGGGAAG | 0.0857 ± 0.11
8 | AAGATCGC | 0.222 ± 0.022
9 | AGAGTATG | -0.216 ± 0.018
10 | CGATACAG | -0.000805 ± 0.045
11 | CCAATTTC | 0.122 ± 0.018
12 | AAATCGCT | -0.000345 ± 0.006
13 | CAGTAGCC | -0.264 ± 0.099
14 | CCCCGCTC | -0.0302 ± 0.034
15 | ACGGTCCA | -0.239 ± 0.031
16 | GCTATATA | -0.0209 ± 0.017
17 | CGATCAAC | 0.124 ± 0.016
18 | ACATCACG | 0.224 ± 0.06
19 | ACCGCCCC | -0.214 ± 0.012
20 | TACACTAA | 0.102 ± 0.059
21 | ATGAGATG | -0.0845 ± 0.075
22 | AAAGAGCC | -0.307 ± 0.026
23 | ATGGCCTG | -0.144 ± 0.05
24 | CTTTGCTC | -0.0392 ± 0.02
25 | AGCTTAAG | -0.102 ± 0.017

Row | Sequence | PBM E-score of 8-mer
26 | TAGCTGAA | -0.173 ± 0.039
27 | GTCTGCAC | 0.00575 ± 0.015
28 | AGTTCCCG | -0.219 ± 0.054
29 | AGCAAGAA | -0.199 ± 0.022
30 | AACTAGGC | -0.0964 ± 0.044
31 | CGCTTCCG | -0.019 ± 0.12
32 | CAGTCCTA | -0.134 ± 0.029
33 | ACCGGACT | -0.277 ± 0.035
34 | CAGCGATG | 0.0886 ± 0.0054
35 | GAGTTGAC | 0.155 ± 0.052
36 | GAGCCAAC | -0.0524 ± 0.01
37 | CATCAGAA | -0.195 ± 0.025
38 | AGGGCTGC | -0.224 ± 0.054
39 | GAAACCCC | -0.137 ± 0.076
40 | GGGTTTGA | -0.086 ± 0.051
41 | ATTTCGGA | -0.17 ± 0.027
42 | GTGTGTCA | 0.348 ± 0.02
43 | GGACACGA | -0.0508 ± 0.0053
44 | ATAACAAT | 0.0445 ± 0.058
45 | ACCCCCAC | -0.211 ± 0.013
46 | TAAGGGGA | -0.118 ± 0.062
47 | ATCATCGG | -0.00423 ± 0.0083
48 | AGAGTCAT | -0.298 ± 0.046
49 | GCGCGTTA | 0.238 ± 0.0084
50 | AGCGTCAA | 0.258 ± 0.0039

Row | Sequence | PBM E-score of 8-mer
51 | ACTTCGAA | 0.021 ± 0.047
52 | ATTGACGC | 0.263 ± 0.0065
53 | CAGTATCC | -0.131 ± 0.1
54 | CGGATAAC | -0.166 ± 0.025
55 | GAACCGAC | 0.0435 ± 0.047
56 | GGGCGCAC | -0.164 ± 0.092
57 | CTCCCTAC | -0.223 ± 0.026
58 | CGTGGTCA | 0.138 ± 0.057
59 | ATAAAATG | -0.0255 ± 0.13
60 | ACTCTGGC | -0.0256 ± 0.038
61 | AATATTAC | -0.0828 ± 0.013
62 | AGCGGGAT | -0.246 ± 0.072
63 | AAGGACCA | -0.265 ± 0.027
64 | ATATCGCA | 0.234 ± 0.055
65 | GATATGGC | -0.171 ± 0.056
66 | ATTTCATG | -0.162 ± 0.02
67 | ATTGAGTA | -0.0133 ± 0.042
68 | CCGGGAGG | -0.00899 ± 0.027
69 | CGAAATGA | 0.108 ± 0.024
70 | CAGAAGGC | 0.226 ± 0.0031
71 | CTGTTGGA | 0.0599 ± 0.038
72 | AGACAGAA | -0.132 ± 0.01
73 | GGAGACTA | -0.272 ± 0.0049
74 | ACAGATGG | -0.119 ± 0.0064
75 | ACACGTGT | 0.403 ± 0.023

Row | Sequence | PBM E-score of 8-mer
76 | AGGATGAC | 0.00519 ± 0.064
77 | ATGGTCGA | 0.00263 ± 0.016
78 | GAACGTCA | -0.0912 ± 0.074
79 | GGAAGAGA | -0.242 ± 0.011
80 | CCGCCAGC | -0.027 ± 0.032
81 | CGGTATTA | 0.0344 ± 0.031
82 | GGCCCTTA | -0.136 ± 0.0076
83 | ACGTAATA | -0.234 ± 0.071
84 | GCAACTCA | -0.00367 ± 0.039
85 | AGGGTTCC | -0.201 ± 0.02
86 | ACAATAAC | 0.039 ± 0.0053
87 | CCGGCGAC | 0.103 ± 0.028
88 | CTGAAGCA | -0.0689 ± 0.037
89 | ACAAAAGG | 0.0222 ± 0.03
90 | CTACCCAG | -0.253 ± 0.11
91 | CCGCATCC | -0.248 ± 0.036
92 | TAGCCTGA | -0.267 ± 0.0082
93 | CACTTAGG | 0.237 ± 0.037
94 | ATTATAGA | -0.0847 ± 0.018
95 | CTCTTCGC | 0.166 ± 0.034
96 | CAGGGGAG | -0.205 ± 0.022
97 | CGGTTACG | -0.0731 ± 0.03
98 | ACTTGCCA | 0.345 ± 0.026
99 | CTCATAGC | 0.0707 ± 0.0017
100 | ATGTGAGG | 0.215 ± 0.026

Row | Sequence | PBM E-score of 8-mer
101 | AGGGGGAT | -0.295 ± 0.042
102 | GAATTTTA | 0.00455 ± 0.1
103 | ACTAGAAC | -0.0795 ± 0.023
104 | ATTTATTC | 0.0139 ± 0.033
105 | GATCGATA | 0.132 ± 0.00066
106 | GGTACATA | -0.237 ± 0.0099
107 | GAAAACGC | 0.0175 ± 0.061
108 | CCACAGAA | 0.145 ± 0.022
109 | AATCGCAC | 0.381 ± 0.0051
110 | AACACGAT | 0.291 ± 0.018
111 | ATTGGGTA | -0.217 ± 0.03
112 | GTTTATCA | 0.134 ± 0.024
113 | ACGCGTTA | 0.287 ± 0.0029
114 | ACGAGTTG | 0.232 ± 0.063
115 | GGAATGCA | -0.386 ± 0.0072
116 | AGAGACTG | -0.154 ± 0.069
117 | AGTTAGAT | -0.182 ± 0.053
118 | ACCGAGCA | -0.115 ± 0.025
119 | ACTCGCCA | 0.144 ± 0.015
120 | ATCACCGC | 0.0207 ± 0.061
121 | AACCTCGG | -0.124 ± 0.033
122 | GGTTAGAC | -0.149 ± 0.05
123 | CTTAGAAA | -0.172 ± 0.047
124 | CGCGCGGA | 0.131 ± 0.022
125 | CTCGCCTC | 0.214 ± 0.011

Row | Sequence | PBM E-score of 8-mer
126 | CTGGATAC | -0.217 ± 0.026
127 | CTGCTCGC | 0.143 ± 0.053
128 | ATTCTGCC | -0.0609 ± 0.023
129 | TAGCAGGA | -0.0117 ± 0.03
130 | AAGTTCTG | -0.122 ± 0.051
131 | CAGAGACC | -0.298 ± 0.017
132 | AATAGAAG | -0.0725 ± 0.084
133 | GGGCGAAA | -0.0293 ± 0.016
134 | AACATGAT | -0.0409 ± 0.098
135 | CACGAACC | -0.138 ± 0.035
136 | AAACACAC | 0.228 ± 0.019
137 | AAGCGATC | -0.194 ± 0.07
138 | TAATCCTA | -0.263 ± 0.035
139 | ACCTACAT | 0.0341 ± 0.036
140 | CGCAAGAG | 0.023 ± 0.076
141 | GGGGCTAC | -0.175 ± 0.0064
142 | ACGGTACT | -0.18 ± 0.035
143 | GGATAGAC | -0.145 ± 0.034
144 | CATCAACG | -0.0231 ± 0.035
145 | ACATCACT | 0.0297 ± 0.063
146 | GATAGGAC | -0.147 ± 0.043
147 | GGGTTAGA | -0.127 ± 0.06
148 | ACGACATG | 0.148 ± 0.006
149 | TGGTACCA | -0.00478 ± 0.035
150 | CAGCAATC | -0.21244 ± 7.8e-05

Row | Sequence | PBM E-score of 8-mer
151 | AAAACCCG | 0.0798 ± 0.023
152 | CTATTCAC | 0.223 ± 0.021
153 | CAAGAAGA | -0.216 ± 0.073
154 | AAGAGTGT | 0.289 ± 0.055
155 | GCATTACA | -0.124 ± 0.0066
156 | CAAAAACC | 0.125 ± 0.029
157 | GCTGGGGA | 0.0708 ± 0.047
158 | CTCGCACA | 0.375 ± 0.0071
159 | CTGACAGC | 0.289 ± 0.011
160 | CCAAAGTC | -0.0848 ± 0.056
161 | CGTTTTGC | 0.033 ± 0.047
162 | ATGTGTCC | 0.0956 ± 0.026
163 | GGCTGGAA | -0.127 ± 0.064
164 | AACTAAGT | -0.031 ± 0.0083
165 | GGCCAAGA | -0.262 ± 0.038
166 | CGTGAGAG | 0.265 ± 0.0088
167 | CCCTGCAG | -0.131 ± 0.044
168 | CCTTCACG | 0.213 ± 0.0063
169 | CTCGATGC | -0.0685 ± 0.13
170 | GGCTACTA | -0.0699 ± 0.1
171 | ACGATCAT | -0.0267 ± 0.016
172 | CATCCCAA | -0.0903 ± 0.063

Reference: the supplement of paper PMC4166925
